# This is one part of the list. The full chains were built here from the parent and the listed change. Inactive controls read about 0.05.
# B1: TEV protease; numbered along this chain (parent)
# chain: MGESLFKGPRDYNPISSSICHLTNESDGHTTSLYGIGFGPFIITNKHLFRRNNGTLVVQSLHGVFKVKDTTTLQQHLVDGRDMIIIRMPKDFPPFPQKLKFREPQREERICLVTTNFQTKSMSSMVSDTSCTFPSGDGIFWKHWIQTKDGQCGSPLVSTRDGFIVGIHSASNFTNTNNYFTSVPKNFMELLTNQEAQQWVSGWRLNADSVLWGGHKVFMVKPEEPFQPVKEATQL
# Variants of: B1
# Experiment: raw area under fraction-flipped curve 0-4 h after induction (AUC4h, not background-subtracted), DNA-recorder readout of cleavage of the substrate (dimensionless); higher = more cleavage of the substrate by the protease variant
# Conditions: temperature: 34 °C; time window: 0-4 h after rhamnose induction
# 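Note: Bxb1 expression induced with 0.2% (w/v) L-rhamnose at OD600 near 0.5, cultures sampled hourly, flipped fraction per protease–substrate barcode pair counted by paired-end Illumina sequencing.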
Variant,area with substrate DNLYFQS,area with substrate FNLYFQS,area with substrate HNLYFQS,area with substrate INLYFQS,area with substrate LNLYFQS,area with substrate MNLYFQS,area with substrate NNLYFQS,area with substrate PNLYFQS,area with substrate TNLYFQS,area with substrate VNLYFQS,area with substrate WNLYFQS,area with substrate GNLYFQS,area with substrate KNLYFQS,area with substrate SNLYFQS,area with substrate RNLYFQS,area with substrate YNLYFQS,area with substrate QNLYFQS
E231R,0.0503,0.0566,0.0566,0.0792,0.0821,0.0734,0.0664,0.0724,0.129,0.0577,0.0634,,,,,,
G136S,,,0.05,,,,0.064,,,,,0.0555,0.0616,0.058,,,
K221H,0.0685,,,0.101,0.0687,0.059,0.0491,,0.0586,0.0625,0.0508,,0.0551,0.059,0.068,0.0483,
K221C,0.063,0.0891,0.0567,,0.058,0.0718,,0.0515,0.0564,,0.055,0.0549,0.0644,0.0626,0.0592,0.0607,0.0588
K221M,0.0537,0.0792,0.0561,0.0628,,0.0608,,,0.0582,0.058,0.0598,0.0783,0.0663,0.0621,,0.043,
K216W,0.0741,0.0742,0.062,,0.0679,,,,0.0681,,0.0671,0.0676,,0.0421,,,
P104Q,,,0.0531,0.0437,0.0513,0.0884,,0.0541,0.0497,,0.0475,0.0465,,0.0611,,,0.0276
L235A,0.0877,,0.0562,,0.0814,0.0569,0.0496,0.0782,0.0659,0.0997,0.0709,,0.054,0.0755,,0.0707,
V64S,,0.0453,,0.0779,,,0.0804,0.0706,0.0711,,0.0439,,0.0679,,,,
G8E,,0.0564,,,,,,,,,,,,,,,0.0805
P228A,0.0874,,0.0645,0.0555,,0.0546,,0.0285,,,,,,0.0645,0.0693,0.0557,0.0768
P228C,0.0981,0.0535,0.0618,0.0615,0.0621,0.0626,,0.079,0.0628,0.0605,0.0625,0.0814,0.0686,,0.0546,0.077,0.0677
P228E,0.0753,0.0515,0.0753,0.0706,,0.061,,0.0646,,0.0477,,,,,,,
M88S,,0.0484,0.054,,0.0739,0.0771,0.0594,,0.0707,,0.0432,,0.0455,0.0549,,,0.0703
V229P,0.104,0.0634,0.0577,0.0738,0.0701,0.0568,,0.0645,0.0658,,0.0636,,0.0676,0.0698,,0.0804,
P184T,,0.0567,0.0605,0.0609,0.054,0.0591,,0.0555,0.0708,,0.0543,0.0508,0.0544,0.0665,0.0671,,
P184D,,,0.0503,0.0433,0.0543,0.0533,0.0522,,,,0.0563,0.0371,,0.0644,,,
G80Y,,,,0.0864,0.0789,,0.0726,,0.0587,,0.0677,0.0575,,,,0.0597,
V217G,0.0582,,,0.0458,,,,,0.0619,,,0.0472,,,,,

Variant,area with substrate DNLYFQS,area with substrate FNLYFQS,area with substrate HNLYFQS,area with substrate INLYFQS,area with substrate LNLYFQS,area with substrate MNLYFQS,area with substrate NNLYFQS,area with substrate PNLYFQS,area with substrate TNLYFQS,area with substrate VNLYFQS,area with substrate WNLYFQS,area with substrate GNLYFQS,area with substrate KNLYFQS,area with substrate SNLYFQS,area with substrate RNLYFQS,area with substrate YNLYFQS,area with substrate QNLYFQS
H215M,0.0747,,0.0669,,0.0605,,,0.0353,,,0.0628,,0.0631,0.0578,0.0525,,
H215N,0.0512,,0.0525,0.0494,0.0517,,0.0504,0.0492,0.0634,,0.0597,,,0.0542,,0.056,0.0579
V200R,,,,,0.0715,,,,0.073,,0.0749,,,,,,
P222N,0.068,0.0491,0.0697,0.0577,0.0611,0.0518,,0.0628,0.052,0.0599,0.0657,,,0.0634,0.0519,0.0253,0.0608
V220Y,0.0717,0.0669,0.0661,,0.073,,0.0795,0.0647,0.077,0.0514,0.0613,,0.0914,0.064,,0.066,0.0569
V220L,0.0573,0.0605,0.0661,0.0351,0.0729,0.0597,,0.0605,0.0654,0.0536,0.0507,0.0746,0.0601,0.0435,,,0.0594
P96G,,0.0645,,0.061,,0.0586,0.0582,,0.0518,,0.0628,,0.0557,,,,
F226S,0.0889,0.066,,0.0756,0.0731,0.0617,0.0645,0.0642,0.0552,,0.0542,0.0605,0.0528,,,0.0653,0.0718
L211F,0.0618,,0.0682,,0.0715,,,0.067,0.0553,0.0617,,0.0892,0.0499,0.0689,,0.0502,
Q227R,0.0799,,,,0.0869,0.0752,,0.0652,0.0784,0.0705,,0.0537,,,,,
Q227Y,0.0842,,0.0653,,0.0783,0.101,,0.0485,0.0646,,0.0649,0.0512,0.0878,,,0.0651,
V210T,0.0526,0.0533,0.0646,,,,,0.0699,0.0426,,,,,,0.0832,,0.0801
D208G,,0.0417,0.0758,,0.0595,0.0636,0.0851,0.0745,0.0663,0.0603,,0.056,,,,,
Q234C,0.0737,0.0598,0.0777,,,,,0.0622,,,0.0561,,,0.0576,,0.0657,
Q234M,0.0781,,0.0615,0.0646,0.0491,0.077,,,,0.0649,0.0663,0.0695,,,0.0554,,0.0522
T233C,0.071,,0.056,,0.0754,0.0558,0.0468,0.0646,,0.0651,0.0425,,0.0669,0.0748,,,
M219P,0.062,0.054,0.0531,0.032,0.0684,,0.0627,0.0638,0.0562,0.0482,0.0564,0.057,,,,0.0516,
M219K,0.0623,,0.0626,0.0831,,0.057,,0.0535,0.055,,0.0778,0.0511,0.0508,0.0523,,0.0467,
M219H,0.0538,,0.0615,0.0607,0.0671,0.0616,,0.0672,0.0586,,0.0539,0.0479,0.0682,,,,0.0506

# Source: the supplement of paper PMC12217912
